Assay results as given in the supplement of paper PMC11417369.
This is one part of the list.

Test system: PfSIP2 AP2 domain 1 (GST-tagged)
Assay: gcPBM binding intensity (ln(normalized median fluorescence intensity)); higher = stronger DNA binding
How it was run: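 Binding intensity is defined as the maximum Masliner-normalised natural-log median intensity across replicate spots for either probe orientation. It was measured on an Agilent 4 × 180k array of primer-extended double-stranded 36-bp intergenic genomic probes and negative controls, to which GST-tagged P. falciparum DNA-binding domains made in E. coli were applied for 1 h in 1× PBS with 1% milk, 0.2 mg/ml BSA, 0.5% salmon testes DNA and 0.03% Triton X-100. Detection was by Alexa488 anti-GST antibody and scanning at 488 nm.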

Point of comparison: “AAATAAAAATAAAATAAAATAAAATTAAATGGGAAT [GTGCAC_negctrl_site349]”, “gcPBM binding intensity (ln)” value 6.87. Against it:
- ATTTCCCTATATAGAGCATGCACTATATTCAAATGA [TGCATGCA_site531] — higher, 8.77
- AACAAAAACACTTTTACACACATAAGTAAAATATAT [CACACA_site1994] — higher, 7.11
- TACTTATTTAAAATAGTGCATGAATAGAAGATATAT [GTGCAC_site9756] — higher, 8.46
- ATACAAATATACTTTTGTACGAAGAAATATATATAT [XGTACX_site3912] — higher, 8.28
- ATACAATTTATTTTAACACACGAATGAATTGATTAT [CACACA_site4160] — higher, 6.98
- GGTTCATATCTTAACACACACATACATATTATAGAT [CACACA_site7392] — higher, 7.32
- TAAAGAAACTATTCAACACACGGTCTAATTATTACA [CACACA_site1064] — lower, 6.74
- ATAAAAAAAATAAAAAGTACAAAAAAAAAAAATGGA [XGTACX_site136] — higher, 6.99
- TATTCTAAAGAAATTACACACATGCAATGAAAAAAA [CACACA_site6895] — lower, 6.68
- AAAAATAAACGACAGTGTACTAAATATTTAATTTTC [XGTACX_site3580] — higher, 6.97
- CAGGGCAGGGGGAAGGGTACACATAAAAGAAAATAA [XGTACX_site172] — higher, 8.34
- TATAAATATATATTTTGTACTTAATATAAATTTATA [XGTACX_site7996] — higher, 6.96
- AATAATATTTAATACACACACCAGTTCTGCAAATTT [CACACA_site7712] — higher, 6.91
- GAAAAAAGAAATTAAACATGCATCTGCAAATTTAAA [TGCATGCA_site974] — lower, 6.58
- AATAGTAAAAGATATACACACACCAAAAAATATAAT [CACACA_site5293] — higher, 7.15
- ACATAATAAAAATAAATTCATAAGTAAATAAATAAA [TGCATGCA_negctrl_site186] — higher, 6.98
- TGCTACATTTTATGTACACACATATACAGATATATA [CACACA_site4646] — higher, 7.06
- TGAATAAATCAAAGCACACATACACCCACATATATA [CACACA_site286] — higher, 7.01
- CTAAAAAATAGTAAAAGTACATAAATAATTTTGCTT [XGTACX_site8919] — lower, 6.78
- TTACACATGTTTAACTGTACACATAATAGCAATATT [XGTACX_site8545] — higher, 7.42
- ACAATTATTTTGTTCTTTAATGGTAGGTTCTATGTC [CACACA_negctrl_site1419] — higher, 7.04
- CATAAATTACTTTTTACACACTAAAATAAAATACAA [CACACA_site1135] — higher, 6.94
- AATACACGCAGACACACACACACACGCACATATATA [CACACA_site6447] — higher, 7.36
- AATGGAGTTTATAAGTATAAACGAGGGATACCTAAA [XGTACX_negctrl_site483] — lower, 6.76
- AATATAAATAATAGTAGTACATATATATCTCAGAAA [XGTACX_site4055] — higher, 7.01
- TAAATAAATTTATACACACACACACCCATATATATA [CACACA_site849] — higher, 7.48
- AAAAAATCAAAACACACACACACACTAGAAAAAAAA [CACACA_site4909] — higher, 7
- TTATGTTGTAAATGCACACATACATATACGCAGTTT [CACACA_site3015] — higher, 7.21
- TATATTATATTTTTATGTACATATATGTTTTTTTTT [XGTACX_site8239] — higher, 6.97
- AATAAAAATATATCCACACACATATATATATCTGTA [CACACA_site4481] — lower, 6.76
- ATTTTATCAAGAGGAAGTACATTACCCCATGAAAAA [XGTACX_site8295] — higher, 7
- TATATATATATATGATGTACATGAAAATTTCCAAAA [XGTACX_site5472] — higher, 9.4
- TATATTTTTTAATTCACACAAAAATGAAAAATATTT [CACACA_site6001] — higher, 6.9
- ATATCTGAAGTGTAAAGTACATATATATATTCATAT [XGTACX_site4612] — higher, 6.94
- CAATTTTACTCATAAACACACATATAGATGTTATTA [CACACA_site7474] — higher, 6.92
- TATATATATTATAATACATGCGGTGATGAAAGTTAT [TGCATGCA_site924] — higher, 7.49
- TATAAATATAGACACACACACACCAAAGCGTAGCGC [CACACA_site6179] — lower, 6.65
- TTTTTTTATATAGACACAAAAGAAAATTACATATAC [CACACA_negctrl_site235] — higher, 7.3
- TATAATATATATATATTTATATATATCTTCCTAATC [GTGCAC_negctrl_site682] — higher, 6.94
- AAAAAAAAAAAAAAAACACACAAGGATCATATATAT [CACACA_site3812] — higher, 7.56
- AATATTTATTTTATATGTACATAATTTATTTTTAAT [XGTACX_site776] — higher, 6.91
- GATTTGTCTTACAGTGGTACACTTATATATATGTGA [XGTACX_site2899] — higher, 7.13
- TATGAAGTACACAATACACACTAATTATATATAAAT [CACACA_site5444] — higher, 6.91
- TTTTTAAAAAAACATACACACAAAAAAAAAAAAAAA [CACACA_site3935] — higher, 6.89
- GTTTTATATTATATATGTACATATCCATGAGATATA [XGTACX_site3328] — higher, 7.23
- TTTAACTTTTATATAACACACATATTGTAATTATGT [CACACA_site6486] — higher, 7.05
- TGTAAACATAAGATATGTACTTATATCATATTATAA [XGTACX_site6883] — higher, 7.01
- ATGACAATTCAAAATTGTACATAAAAAAAAAAAAAA [XGTACX_site7560] — higher, 7.11
- AAAAAACATTTTCGAGTGCATGTTTTGCTTTATTTC — higher, 7.56
- AATAATTTGGTCTTATCAAAAATTAAAAATAAATAA [XGTACX_negctrl_site430] — higher, 6.92
- TTAAATGTTAAAAGGGTGCTATTATATAAATGAAAA [GTGCAC_site9882] — higher, 9.06
- TTCATATGTTTTAACACACACGCATATATTATATAT [CACACA_site2007] — higher, 7.16
- AAAAAAATTTGGCATACACACACACCCCCACCCACA [CACACA_site8094] — higher, 8.37
- ACCATATGTACATTTTTTTTTTTTTTTTTTTTTTTT [CACACA_negctrl_site1188] — higher, 8.51
- ATATATATATAATGTAGTACTATTTAATAATAAGCC [XGTACX_site1263] — higher, 8.88
- AAAAAAAAAAAAAAAGCACACACCAATGAGCAGCTT [CACACA_site1845] — higher, 7.62
- CACACCCACAGACACACACACACATATATAATATAT [CACACA_site594] — higher, 7.27
- TATAATCATATACACGCATGTATAAAATTTAATACT [TGCATGCA_site700] — higher, 7.06
- ATATGTTACAAAGATTGTACTTATTAAGGAGCGACT [XGTACX_site5094] — higher, 7.16
- TAATATATGTATTATGCATGTGAATAAGCACTTGAT [TGCATGCA_site848] — higher, 7.64
- ACATTCAAGCGTAATTGTACATACATATATATATAT [XGTACX_site8876] — higher, 9.1
- ATGTATATAAATAGTAGTACATTATTTCACACTGTA [XGTACX_site2061] — higher, 7.11
- TATTGTATCCTTAATGCATGCACCAAATAAAAAAAG [TGCATGCA_site541] — higher, 11.1
- ATATATCATCATGTATGTACACACATACATATATTA [XGTACX_site2814] — higher, 7.18
- TATGCTTTTACAATGTGTACTTATATTTTTCACAGG [XGTACX_site6201] — higher, 7.37
- TAATTTTCAATAATTTGTACATAATTTTTATAAATT [XGTACX_site8133] — lower, 6.84
- TATATAAATTAACCAGTGCATTATTTGGAAATTATT — higher, 8.33
- AACCATAAAAAGTGTACACATATAAAAAATATGGAA [CACACA_site4199] — higher, 7.39
- TAAAAAAATTTTACAAGTACAAAAAAATGTAATAAA [XGTACX_site4829] — higher, 7.05
- ATATATATAGATCGAAGTACAGATAGAATGAAAATA [XGTACX_site2695] — higher, 7.1
- ACAAGAGAAAAAAATACACACAAGATAAAAATGTAT [CACACA_site607] — higher, 7
- TAATAATAATTAAATTGTACATATAATATAATATAA [XGTACX_site8554] — higher, 7.15
- ATATTATCATATTCGAGTACACGAAGTATTATTGCA [XGTACX_site6765] — higher, 7.07
- AATAAAGTAATAACTACACACATTTATAAAAAAGTA [CACACA_site3753] — higher, 6.89
- AACATATTGGATTTAGTGCACATATATATCATAATA — higher, 10.3
- AAAAATTACCCTTGTGTACACATATATTATCTGTAT [CACACA_site4513] — higher, 7.19
- TATAAGCTTTCAATGTGTACATATTATTTTATTATT [XGTACX_site3988] — higher, 7.14
- TCTTATAAACATGTATATATTAAAAAAAAAAAAAAA [TGCATGCA_negctrl_site86] — higher, 7.09
- TAAAAATTACTATATGAACACACATGATTAGATATA [CACACA_site9012] — higher, 6.9
- AGGTGATTAATATATACACACATACATATATATATA [CACACA_site8913] — higher, 8.9
- TAATTTAATAATTAGACACACATGTCTAAAATAAAA [CACACA_site2527] — lower, 6.7
- AAAAGAAATTTGGGCACATGCGAATTTATAATTTAT [TGCATGCA_site960] — lower, 6.68
- TAAAGTATTACAACCACACACACACCGATATATTAT [CACACA_site9382] — higher, 6.97
- TATATATATATATATACATGCATATTTTTTATTTTT [TGCATGCA_site464] — higher, 9.67
- TTTTTTATATATATTTGTACATATTGCATGTTCCCT [XGTACX_site7143] — higher, 6.91
- TATATTTATCTGATAACACACATAAATTAGACATTT [CACACA_site6887] — higher, 7.01
- TGTCTTATATATATTACACACTATATGAAAAAATAT [CACACA_site1487] — higher, 7.07
- AATATGGTTATATATATATATATATATATATATATT [GTGCAC_negctrl_site566] — higher, 7.95
